± gives the standard deviation of the averaged measurements. Whole data set: some 33,000 sequences, median “E-score (dimensionless, -0.5 to 0.5)” near -0.049, cut for the highest 2% near 0.37. Some of the results follow.
Test system: T1, PmTbr T-box DNA-binding domain (GST fusion)
T1 sequence: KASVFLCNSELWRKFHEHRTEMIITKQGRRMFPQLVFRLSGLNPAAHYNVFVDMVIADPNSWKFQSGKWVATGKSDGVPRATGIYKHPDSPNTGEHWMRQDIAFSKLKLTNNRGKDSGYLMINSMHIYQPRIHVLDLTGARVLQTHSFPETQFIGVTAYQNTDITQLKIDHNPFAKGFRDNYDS
Experiment: PBM E-score of 8-mer (E-score (dimensionless, -0.5 to 0.5)); Tbr is Tbrain of the sea star Patiria miniata (Pm) or the sea urchin Strongylocentrotus purpuratus (Sp); higher = stronger binding preference; most listed sequences are background and not binding sites
Details: the construct has about 5 more residues each side
Procedure, shortened: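 Expression of GST-fused Tbr T-box DNA-binding domains, each holding the full T-box plus roughly five flanking residues, was carried out in BL21 E. coli at 20 °C, with purification by glutathione affinity chromatography. Universal Agilent arrays made double-stranded by primer extension were incubated with the protein at 200 nM in PBS (pH 7.5), then scanned and quantified. All ungapped 8-mers were scored from probe intensities, and each received an enrichment E-score from the Universal PBM Analysis Suite, averaged over duplicate arrays.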

Sequence | PBM E-score of 8-mer
GGAAGAGA | -0.242 ± 0.011
CCGCCAGC | -0.027 ± 0.032
CGGTATTA | 0.0344 ± 0.031
GGCCCTTA | -0.136 ± 0.0076
ACGTAATA | -0.234 ± 0.071
GCAACTCA | -0.00367 ± 0.039
AGGGTTCC | -0.201 ± 0.02
ACAATAAC | 0.039 ± 0.0053
CCGGCGAC | 0.103 ± 0.028
CTGAAGCA | -0.0689 ± 0.037
ACAAAAGG | 0.0222 ± 0.03
CTACCCAG | -0.253 ± 0.11
CCGCATCC | -0.248 ± 0.036
TAGCCTGA | -0.267 ± 0.0082
CACTTAGG | 0.237 ± 0.037
ATTATAGA | -0.0847 ± 0.018
CTCTTCGC | 0.166 ± 0.034
CAGGGGAG | -0.205 ± 0.022
CGGTTACG | -0.0731 ± 0.03
ACTTGCCA | 0.345 ± 0.026
CTCATAGC | 0.0707 ± 0.0017
ATGTGAGG | 0.215 ± 0.026

Sequence | PBM E-score of 8-mer
AGGGGGAT | -0.295 ± 0.042
GAATTTTA | 0.00455 ± 0.1
ACTAGAAC | -0.0795 ± 0.023
ATTTATTC | 0.0139 ± 0.033
GATCGATA | 0.132 ± 0.00066
GGTACATA | -0.237 ± 0.0099
GAAAACGC | 0.0175 ± 0.061
CCACAGAA | 0.145 ± 0.022
AATCGCAC | 0.381 ± 0.0051
AACACGAT | 0.291 ± 0.018
ATTGGGTA | -0.217 ± 0.03
GTTTATCA | 0.134 ± 0.024
ACGCGTTA | 0.287 ± 0.0029
ACGAGTTG | 0.232 ± 0.063
GGAATGCA | -0.386 ± 0.0072
AGAGACTG | -0.154 ± 0.069
AGTTAGAT | -0.182 ± 0.053
ACCGAGCA | -0.115 ± 0.025
ACTCGCCA | 0.144 ± 0.015
ATCACCGC | 0.0207 ± 0.061
AACCTCGG | -0.124 ± 0.033
GGTTAGAC | -0.149 ± 0.05

Sequence | PBM E-score of 8-mer
CTTAGAAA | -0.172 ± 0.047
CGCGCGGA | 0.131 ± 0.022
CTCGCCTC | 0.214 ± 0.011
CTGGATAC | -0.217 ± 0.026
CTGCTCGC | 0.143 ± 0.053
ATTCTGCC | -0.0609 ± 0.023
TAGCAGGA | -0.0117 ± 0.03
AAGTTCTG | -0.122 ± 0.051
CAGAGACC | -0.298 ± 0.017
AATAGAAG | -0.0725 ± 0.084
GGGCGAAA | -0.0293 ± 0.016
AACATGAT | -0.0409 ± 0.098
CACGAACC | -0.138 ± 0.035
AAACACAC | 0.228 ± 0.019
AAGCGATC | -0.194 ± 0.07
TAATCCTA | -0.263 ± 0.035
ACCTACAT | 0.0341 ± 0.036
CGCAAGAG | 0.023 ± 0.076
GGGGCTAC | -0.175 ± 0.0064
ACGGTACT | -0.18 ± 0.035
GGATAGAC | -0.145 ± 0.034
CATCAACG | -0.0231 ± 0.035

Sequence | PBM E-score of 8-mer
ACATCACT | 0.0297 ± 0.063
GATAGGAC | -0.147 ± 0.043
GGGTTAGA | -0.127 ± 0.06
ACGACATG | 0.148 ± 0.006
TGGTACCA | -0.00478 ± 0.035
CAGCAATC | -0.21244 ± 7.8e-05
AAAACCCG | 0.0798 ± 0.023
CTATTCAC | 0.223 ± 0.021
CAAGAAGA | -0.216 ± 0.073
AAGAGTGT | 0.289 ± 0.055
GCATTACA | -0.124 ± 0.0066
CAAAAACC | 0.125 ± 0.029
GCTGGGGA | 0.0708 ± 0.047
CTCGCACA | 0.375 ± 0.0071
CTGACAGC | 0.289 ± 0.011
CCAAAGTC | -0.0848 ± 0.056
CGTTTTGC | 0.033 ± 0.047
ATGTGTCC | 0.0956 ± 0.026
GGCTGGAA | -0.127 ± 0.064
AACTAAGT | -0.031 ± 0.0083
GGCCAAGA | -0.262 ± 0.038
CGTGAGAG | 0.265 ± 0.0088

Sequence | PBM E-score of 8-mer
CCCTGCAG | -0.131 ± 0.044
CCTTCACG | 0.213 ± 0.0063
CTCGATGC | -0.0685 ± 0.13
GGCTACTA | -0.0699 ± 0.1
ACGATCAT | -0.0267 ± 0.016
CATCCCAA | -0.0903 ± 0.063
CAGACAGA | -0.0984 ± 0.023
GGTACGAC | -0.0493 ± 0.042
CACTCCGC | 0.0683 ± 0.039
GCACTCCA | 0.124 ± 0.03
ACTTTCAG | 0.0962 ± 0.033
GCCGAGAC | -0.197 ± 0.011
CATATCTC | 0.0249 ± 0.039
AAGTACGT | -0.0204 ± 0.035
CGGGATCA | -0.0485 ± 0.045
ATCGCTTG | -0.145 ± 0.086
AGCCCAAT | -0.213 ± 0.048
GTCGGCAC | 0.1802 ± 0.00045
ACGAATGC | 0.0243 ± 0.00054
CCACTGGG | -0.0864 ± 0.036
CCTTTGTA | 0.0138 ± 0.0078
AGGCAATC | -0.27 ± 0.097
